This note sets out measurements from article PMC4336329 (PLoS ONE, 2015).

Hit rate of the full screen: of about 310,000 compounds, about 2,200 (0.71%) showed an effect of 50% or more. The effect is printed as a negative number. Some of the results follow.

Sequence of human ether-à-go-go-related gene (hERG) potassium channel (Q12809 whole entry, looked up): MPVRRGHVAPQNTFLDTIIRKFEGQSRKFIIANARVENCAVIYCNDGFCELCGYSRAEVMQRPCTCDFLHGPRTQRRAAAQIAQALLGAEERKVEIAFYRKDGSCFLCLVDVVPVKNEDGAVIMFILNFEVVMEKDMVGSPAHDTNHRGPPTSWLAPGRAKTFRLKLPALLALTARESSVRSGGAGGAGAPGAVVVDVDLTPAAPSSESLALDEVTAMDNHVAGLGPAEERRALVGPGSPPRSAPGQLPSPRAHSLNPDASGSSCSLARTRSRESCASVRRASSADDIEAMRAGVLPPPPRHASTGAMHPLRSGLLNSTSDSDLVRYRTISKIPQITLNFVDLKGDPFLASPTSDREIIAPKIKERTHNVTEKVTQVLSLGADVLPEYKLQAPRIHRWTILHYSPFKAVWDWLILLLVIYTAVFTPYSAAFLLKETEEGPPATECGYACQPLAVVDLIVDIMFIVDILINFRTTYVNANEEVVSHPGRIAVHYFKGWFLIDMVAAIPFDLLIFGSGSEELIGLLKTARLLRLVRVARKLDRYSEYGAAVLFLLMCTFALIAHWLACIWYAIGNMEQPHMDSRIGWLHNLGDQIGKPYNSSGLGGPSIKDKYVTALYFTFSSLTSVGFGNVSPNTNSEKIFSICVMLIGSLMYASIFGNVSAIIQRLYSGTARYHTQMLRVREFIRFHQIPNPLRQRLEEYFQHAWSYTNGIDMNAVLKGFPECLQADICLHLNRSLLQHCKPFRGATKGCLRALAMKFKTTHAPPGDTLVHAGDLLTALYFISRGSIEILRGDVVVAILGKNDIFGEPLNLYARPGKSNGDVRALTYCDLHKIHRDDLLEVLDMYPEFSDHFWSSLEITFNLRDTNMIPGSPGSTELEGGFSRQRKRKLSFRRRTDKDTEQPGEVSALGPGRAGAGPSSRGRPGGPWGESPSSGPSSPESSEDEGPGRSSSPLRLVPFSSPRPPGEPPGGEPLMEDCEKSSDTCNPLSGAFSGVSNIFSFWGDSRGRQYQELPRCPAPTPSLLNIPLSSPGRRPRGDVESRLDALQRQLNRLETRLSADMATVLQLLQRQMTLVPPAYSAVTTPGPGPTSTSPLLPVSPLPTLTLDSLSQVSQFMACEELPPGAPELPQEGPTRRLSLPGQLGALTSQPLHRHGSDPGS

The experiment concerns the target human ether-à-go-go-related gene (hERG) potassium channel (human, UniProt Q12809). The experiment in a line: primary screen, population patch clamp on CHO cells stably expressing hERG.
Turning to `Cl.O=C(CS(=O)(=O)c1ccccc1)N(CCCN1CCOCC1)c1nc2c(F)cccc2s1`, the “hERG current change (%, negative = inhibition) at 1uM” value is listed as 21.9%.

With `CCc1nccn1S(=O)(=O)c1cc(OC)ccc1OC`, the “hERG current change (%, negative = inhibition) at 1uM” value came out at 13.4%.

Consider `O=C(c1ccc2nc(Cc3ccccc3F)oc2c1)N1CCCC1`, for which the “hERG current change (%, negative = inhibition) at 1uM” value was found to be 2.92%.

For `CC(=O)Nc1cccc(C(=O)OCC(=O)Nc2ccc(Cl)cn2)c1`, the “hERG current change (%, negative = inhibition) at 1uM” value was found to be 15.4%.

Consider `CCOC(=O)C1(Cc2ccccc2Cl)CCN(S(C)(=O)=O)CC1`, for which the “hERG current change (%, negative = inhibition) at 1uM” value is listed as 6.64%.

As for `O=C(Cc1ccc(Br)cc1)N1CCOCC1`, the “hERG current change (%, negative = inhibition) at 1uM” value is recorded as 10.2%.

With `CCNc1[nH]c(=O)n(C)c(=O)c1N=O`, the “hERG current change (%, negative = inhibition) at 1uM” value is 9.88%.

Consider `CN(C)C(=O)CSc1nnc(Cc2ccccc2)n1CC1CCCO1` (stereo not shown), for which the “hERG current change (%, negative = inhibition) at 1uM” value is listed as 3.28%.

Regarding `COc1c2occc2c(OC)c2c(=O)cc(C(F)(F)C(F)(F)F)oc12`, the “hERG current change (%, negative = inhibition) at 1uM” value stood at 6.75%.

With `O=C(CSc1nc2ccccc2o1)N1CCN(c2ccc(Cl)cc2)CC1`, the “hERG current change (%, negative = inhibition) at 1uM” value is recorded as 9.85%.

As to `COc1ccc(SCCN2CCN(CC(C)C)CCC2=O)cc1`, the “hERG current change (%, negative = inhibition) at 1uM” value was -9.25%.

Regarding `Cc1ccc(/C=N/n2c(-c3cccnc3)n[nH]c2=S)o1`, the “hERG current change (%, negative = inhibition) at 1uM” value is on record as 8.13%.

Take `COc1ccc(C(=O)Nc2ccc(CN3CCS(=O)(=O)CC3)cc2)cc1`: the “hERG current change (%, negative = inhibition) at 1uM” value is 10.2%.

With `CCc1ccc(CN(C)C(=O)c2cc(=O)c3ccccc3o2)cc1`, the “hERG current change (%, negative = inhibition) at 1uM” value is listed as -22.7%.

Take `CC(=O)NN1C(=O)/C(=C/c2ccc(Br)o2)SC1=S`: the “hERG current change (%, negative = inhibition) at 1uM” value is reported as 12.2%.

With `COc1ccc(OCC(=O)NC(=S)Nc2ccc(N3CCOCC3)c(Cl)c2)cc1`, the “hERG current change (%, negative = inhibition) at 1uM” value is 0.926%.

Consider `Cc1cc(NC(=O)c2cc(-c3ccccc3Cl)nc3ccccc23)no1`, for which the “hERG current change (%, negative = inhibition) at 1uM” value was 11.9%.

Turning to `Nc1nc(Nc2ccccc2F)nc(NCc2ccco2)c1[N+](=O)[O-]`, the “hERG current change (%, negative = inhibition) at 1uM” value came to 5.93%.

For the compound `Cc1ccccc1OCC(O)CN1CCCCC1.Cl` (stereo not shown), the “hERG current change (%, negative = inhibition) at 1uM” value was 16.2%.

Consider `NC(=O)C(CC(=O)O)NC(=O)[C@@H]1CCCNc2c(I)cc([N+](=O)[O-])cc2C(=O)N[C@@H](CO)C(=O)N[C@@H](Cc2ccc(O)cc2)C(=O)N1` (stereo partly shown), for which the “hERG current change (%, negative = inhibition) at 1uM” value stood at 11.6%.

Turning to `CCC(CC)C(=O)c1c[nH]c(C(=O)N2CCN(c3ccc(OC)cc3)CC2)c1`, the “hERG current change (%, negative = inhibition) at 1uM” value was determined as 7.37%.

In the case of `COc1ccc(OC)c(C(C)NC(=O)c2ccc(Br)cc2)c1` (stereo not shown), the “hERG current change (%, negative = inhibition) at 1uM” value amounted to 2.08%.

In the case of `c1ccc2c(c1)CCN(c1ncnc3nc[nH]c13)C2`, the “hERG current change (%, negative = inhibition) at 1uM” value is given as 14.3%.

Consider `Cc1cccc(NC(=O)C2(c3cccs3)CCOCC2)c1`, for which the “hERG current change (%, negative = inhibition) at 1uM” value was determined as 4.69%.

For the compound `Oc1cccnc1Sc1cccc(C(F)(F)F)c1`, the “hERG current change (%, negative = inhibition) at 1uM” value is on record as 21.9%.

With `CC[C@@H](C(=O)n1nc(C)cc1C)[C@H](NS(=O)(=O)c1ccc(C)cc1)c1ccccc1`, the “hERG current change (%, negative = inhibition) at 1uM” value was found to be 5.06%.

Regarding `COc1cc(/C=C/C(=O)NC(C)(C)C)ccc1OCc1ccccc1`, the “hERG current change (%, negative = inhibition) at 1uM” value is reported as 6.93%.

On to `CSc1c(CC(=O)NCCCO)n(Cc2ccccc2)c2ccccc12`, for which the “hERG current change (%, negative = inhibition) at 1uM” value came out at 8.55%.

For `CCOC(=O)c1ccc(NC(=O)Nc2ncc(Cl)cc2Cl)cc1`, the “hERG current change (%, negative = inhibition) at 1uM” value is recorded as 16.5%.

Turning to `CN1CCN(C(=O)CCN2C(=O)c3ccccc3C2=O)CC1`, the “hERG current change (%, negative = inhibition) at 1uM” value is 13.8%.

As to `Cc1cc(OC(=O)c2ccc(S(=O)(=O)N3CCCC3)cc2)c([N+](=O)[O-])c(=O)[nH]1`, the “hERG current change (%, negative = inhibition) at 1uM” value was found to be 0.817%.

As to `Cc1ccccc1S(=O)(=O)Cc1ccc(C(=O)NCCN2CCCCC2C)o1` (stereo not shown), the “hERG current change (%, negative = inhibition) at 1uM” value is given as -6.49%.

Regarding `CC(c1ccccc1C(O)(c1ccccc1)c1ccccc1)N(C)C` (stereo not shown), the “hERG current change (%, negative = inhibition) at 1uM” value is 2.37%.

Consider `O=C(c1ccccc1Cc1ccccc1)N1CCN(S(=O)(=O)c2ccccc2)CC1`, for which the “hERG current change (%, negative = inhibition) at 1uM” value is 16%.

For the compound `CN(C)CCc1c[nH]c2ccc(C[C@H]3COC(=O)N3)cc12`, the “hERG current change (%, negative = inhibition) at 1uM” value is recorded as 1.64%.

On to `COc1cc(C)c(Cl)cc1S(=O)(=O)NC1CC(C)(C)NC(C)(C)C1`, for which the “hERG current change (%, negative = inhibition) at 1uM” value stood at 21.5%.

As for `CCCCCCC(O)(c1ccc(OC)cc1)C(CN1CCOCC1)c1ccccc1.Cl` (stereo not shown), the “hERG current change (%, negative = inhibition) at 1uM” value is given as 11.9%.

With `Cl.NCCOc1ccc(C23CC4CC(CC(C4)C2)C3)cc1`, the “hERG current change (%, negative = inhibition) at 1uM” value was -2.8%.

With `Cc1ccc(C)c(NC(=O)CCN2C(=O)c3ccccc3C2=O)c1`, the “hERG current change (%, negative = inhibition) at 1uM” value stood at 15.3%.

Turning to `Cn1c2c(c3cc([N+](=O)[O-])ccc31)CCCC2`, the “hERG current change (%, negative = inhibition) at 1uM” value was 7.54%.

Turning to `COc1ccccc1CCNC(=O)c1cc(-c2ccccn2)nc2ccc(Br)cc12`, the “hERG current change (%, negative = inhibition) at 1uM” value worked out at 9.64%.

For `CCOC(=O)NCCc1c(C)nc2c(c(C)nn2C(C)(C)C)c1C`, the “hERG current change (%, negative = inhibition) at 1uM” value is reported as 2%.

For the compound `COc1ccc(N2C(=O)CCC(C(=O)N3CCCCC3)C2c2ccc(F)cc2)cc1` (stereo not shown), the “hERG current change (%, negative = inhibition) at 1uM” value is listed as 13.2%.
